± gives the standard deviation. The entries are a selection whose mix differs from that of the whole data set.
Each sequence was assayed on MIWI (PIWIL1) piRISC loaded with piRNA #1 (30 nt) (assay: pre-steady-state target cleavage rate (min^-1); MIWI and MILI are mouse PIWI proteins and EfPiwi is from a freshwater sponge; tags in brackets are library labels; higher = faster piRNA-guided slicing of the target). Conditions: guide: piRNA #1 5'p-UGAGGUAGUAGGUUGUAUAGUAUCCAGAGG; auxiliary factor: 500 nM mouse GTSF1.
How it was run: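 Active affinity-purified piRISC (1 nM) loaded with one synthetic guide was mixed with a transcribed, DNA-blocked target RNA library (0.1 nM), with or without 500 nM GTSF1 partner protein, in HEPES–potassium acetate buffer at 33 °C for 0–8 or 0–960 min. Uncleaved targets were sequenced, normalised to depth and to weakly complementary targets, and pooled across three trials, with k3 capped at 0.0001 min^-1. The pre-steady-state cleavage rate was determined with a burst-and-steady-state fit.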
With GGACUGCGAUACUAUACAACCUACUACCUCA the “pre-steady-state target cleavage rate” value was 1.79 ± 0.13. With GGAGACCUUACUAUCACAACCUACUACCUCA the “pre-steady-state target cleavage rate” value was 0.645 ± 0.086. GGAGAGCAUACUAUUCAACCUACUACCUCA was tested, and the “pre-steady-state target cleavage rate” value was 1.78 ± 0.12. With GGACUAGGAUACUAUACAACCUACUACCUCA the “pre-steady-state target cleavage rate” value was 1.83 ± 0.12. GGUCUGGACACUAUACAACCUACUACCUCA was tested, and the “pre-steady-state target cleavage rate” value was 1.77 ± 0.1. In the case of GGAGUCGAUACUAUACAACCUAGUACCUCA, the “pre-steady-state target cleavage rate” value is reported as 0.248 ± 0.028. GCUCUGGAUACUAUACAACGUACUACCUCA was tested, and the “pre-steady-state target cleavage rate” value was 1.32 ± 0.069. In the case of CCUCUGGAUACUAUACAACCUACUAACUCA, the “pre-steady-state target cleavage rate” value is reported as 1.5 ± 0.095. With CCUCUGGAUACUAUACAACCUACUACCUGA the “pre-steady-state target cleavage rate” value was 0.831 ± 0.11. With GGAGACCUUACUAUACAUGCUACUACCUCA the “pre-steady-state target cleavage rate” value was 0.291 ± 0.029. In the case of GGACUGGAUACUAGUACAACCUACUACCUCA, the “pre-steady-state target cleavage rate” value is reported as 1.48 ± 0.14. For CCUCUGGAUACUAUACAACCUACUCCCUCA, the “pre-steady-state target cleavage rate” value was 1.18 ± 0.068. GGAGACCUAACUAUACAACCUACUUGCUCA was tested, and the “pre-steady-state target cleavage rate” value was 0.358 ± 0.07. In the case of GGAGACCUAACUAUACAACGUAGUACCUCA, the “pre-steady-state target cleavage rate” value is reported as 0.015 ± 0.0033. With GGAGACCUUACUAAACAACCUACUACCUGA the “pre-steady-state target cleavage rate” value was 0.223 ± 0.032. With “GGAGACCUAUGAAUACAACCUACUACCUCG [g2:g18:cont:t1G]” the “pre-steady-state target cleavage rate” value was 0.00279 ± 0.0027. GGACUGGAUACAUACAACCUACUACCUCA was tested, and the “pre-steady-state target cleavage rate” value was 1.25 ± 0.13. With GGAGACCUUACUAUAGAACCUACUACCACA the “pre-steady-state target cleavage rate” value was 0.246 ± 0.031. With GCUCUGGAUAUUAUACAACCUACUACCUCA the “pre-steady-state target cleavage rate” value was 2.06 ± 0.11. In the case of GGUCUCGAUACUAUACAACCUACAACCUCA, the “pre-steady-state target cleavage rate” value is reported as 0.534 ± 0.053. With GGAGUGGAUACUAUACAACCUAGUACCUGA the “pre-steady-state target cleavage rate” value was 0.00324 ± 0.0024. With GGACUGGAUACUAUAGAACCAACUACCUCA the “pre-steady-state target cleavage rate” value was 0.0434 ± 0.006. In the case of GGACUGGAUACAUAUACAACCUACUACCUCA, the “pre-steady-state target cleavage rate” value is reported as 1.45 ± 0.12. In the case of GGUCUGGAUACUUAACAACCUACUACCUCA, the “pre-steady-state target cleavage rate” value is reported as 1.23 ± 0.12. With GGACUGGAUACUAUACAACCUACUACCUA the “pre-steady-state target cleavage rate” value was 0.543 ± 0.1. For CCUCUGGAUUCUAUUCAACCUACUACCUCA, the “pre-steady-state target cleavage rate” value was 1.12 ± 0.071. In the case of GGAGACCUAACUAACAACCUACUACCUCA, the “pre-steady-state target cleavage rate” value is reported as 0.00953 ± 0.0044. In the case of GGAGUGGAUACUAUUGUACCUACUACCUCA, the “pre-steady-state target cleavage rate” value is reported as 0.0769 ± 0.014. In the case of GGAGACCAUAGUAUACAAGCUACUACCUCA, the “pre-steady-state target cleavage rate” value is reported as 0.399 ± 0.028. In the case of GGAGACCAUACUAUACAACCUAGUACGUCA, the “pre-steady-state target cleavage rate” value is reported as 0.0791 ± 0.018. GGAGUGGAUACUAUUGAACCUACUACCUCA was tested, and the “pre-steady-state target cleavage rate” value was 0.298 ± 0.028. With GCUCUGGAUACUAUACAACCUACUACAUCA the “pre-steady-state target cleavage rate” value was 1.42 ± 0.095. CCUCUGGGUACUAUACAACCUACUACCUCA was tested, and the “pre-steady-state target cleavage rate” value was 0.804 ± 0.041. GGAGACGAUUCAAUACAACCUACUACCUCA was tested, and the “pre-steady-state target cleavage rate” value was 0.502 ± 0.063. GGUCUGGAUCACUAUACAACCUACUACCUCA was tested, and the “pre-steady-state target cleavage rate” value was 1.08 ± 0.1. In the case of GGAGACCAUACUAUACAACGUACUACCACA, the “pre-steady-state target cleavage rate” value is reported as 0.68 ± 0.059. GGAGACCUAUCUAUACAACCUACGUACCUCA was tested, and the “pre-steady-state target cleavage rate” value was 0.312 ± 0.049. In the case of GGAGACGAUACUAUACUACCAACUACCUCA, the “pre-steady-state target cleavage rate” value is reported as 0.0376 ± 0.0067. For GGAGACCAUACUAAACAAGCUACUACCUCA, the “pre-steady-state target cleavage rate” value was 0.678 ± 0.056. In the case of GGAGACCUAUGAAUACAACCUCCUACCUCA, the “pre-steady-state target cleavage rate” value is reported as 0.00268 ± 0.0024.

Reference: the supplement of paper PMC10338343
